Reference: the supplement of paper PMC9446081
The campaign covered roughly 39,000 compounds. About 220 (0.56%) showed activity. Some of the results follow.

System: Escherichia coli K-12 BW25113
Assay: relative growth (OD600 normalised to plate interquartile mean) (fraction); higher = less growth inhibition, active = 0.2 or less
Conditions: 50 µM; LB; incubation time: overnight (16-24 h)
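Also: static incubation at 37 °C against the wild-type strain, values averaged over two biological replicates.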

| Structure (SMILES) | relative growth |
| --- | --- |
| C[C@@H]1CN([C@@H](C)CO)C(=O)Cc2cc(NC(=O)Cc3cn(C)c4ccccc34)ccc2O[C@H]1CN(C)CC1CCCCC1 | inactive: 0.994 |
| COc1ccc(NC(=O)N(C)C[C@@H]2Oc3ccc(NC(=O)Nc4cccc5ccccc45)cc3C(=O)N([C@H](C)CO)C[C@@H]2C)cc1 | inactive: 0.982 |
| C[C@@H]1CN([C@@H](C)CO)S(=O)(=O)c2ccc(-c3ccccc3F)cc2O[C@@H]1CN(C)S(C)(=O)=O | inactive: 1.01 |
| O=C(Nc1ccc(-c2nc3ccc(NC(=O)c4ccccc4[N+](=O)[O-])cc3[nH]2)cc1)c1ccccc1[N+](=O)[O-] | inactive: 1.03 |
| CC(C)NC(=O)NCC[C@@H]1CC[C@@H](NC(=O)CN(C)C)[C@@H](CO)O1 | inactive: 1.02 |
| C[C@@H]1CCCCO[C@@H](CN(C)S(=O)(=O)c2ccc(F)cc2)[C@H](C)CN([C@@H](C)CO)C(=O)c2cc(NS(=O)(=O)c3cn(C)cn3)ccc2O1 | inactive: 1.01 |
| C[C@H]1CN([C@@H](C)CO)S(=O)(=O)c2ccc(C#CC3(O)CCCC3)cc2O[C@H]1CN(C)C(=O)Cc1ccccc1 | inactive: 1.01 |
| Cc1ccc(S(=O)(=O)Nc2ccc3c(c2)CC(=O)N([C@H](C)CO)C[C@H](C)[C@H](CN(C)S(=O)(=O)c2ccccc2)O3)cc1 | inactive: 0.998 |
| COc1ccc(CN(C)C[C@H]2OCCCC[C@H](C)Oc3ccc(NC(=O)Nc4ccc(C(F)(F)F)cc4)cc3C(=O)N([C@@H](C)CO)C[C@@H]2C)cc1 | inactive: 0.977 |
| C[C@@H]1CN([C@H](C)CO)C(=O)c2cc(NC(=O)Cn3cnnn3)ccc2O[C@H]1CN(C)C(=O)Nc1ccccc1 | inactive: 0.985 |
| O=c1[nH]c(=O)n(C2CC(O)C(CO)O2)cc1F (stereo not drawn) | active: 0.0526 |
| CC(=O)N[C@@H](CCCNC(=N)N)C(=O)N[C@H]1CSSC[C@@H](C(N)=O)NC(=O)[C@H](Cc2c[nH]c3ccccc23)NC(=O)[C@H](CCCNC(=N)N)NC(=O)[C@@H](Cc2ccccc2)NC(=O)[C@H](Cc2cnc[nH]2)NC(=O)[C@@H](C)NC1=O | inactive: 1.01 |
| CC(=O)N(C)C[C@H]1Oc2ncc(C#C[C@H](C)O)cc2C(=O)N([C@H](C)CO)C[C@H]1C | inactive: 0.976 |
| C[C@H](CO)N1C[C@H](C)[C@H](CN(C)CC2CCCCC2)Oc2ccc(NC(=O)Cc3cn(C)c4ccccc34)cc2C1=O | inactive: 0.988 |
| COc1ccccc1C#Cc1cnc2c(c1)C(=O)N([C@@H](C)CO)C[C@@H](C)[C@H](CN(C)S(=O)(=O)c1cn(C)cn1)O2 | inactive: 1.02 |
| O=C(C[C@@H]1CC[C@@H]2[C@H](COC[C@H](O)CN2C(=O)Nc2cc(Cl)cc(Cl)c2)O1)N1CCOCC1 | inactive: 0.972 |
| COc1ccc(C#Cc2ccc3c(c2)O[C@H](CN(C)C(=O)c2ccccn2)[C@@H](C)CN([C@@H](C)CO)S3(=O)=O)cc1 | inactive: 1.02 |
| CCCNC(=O)Nc1ccc2c(c1)C(=O)N(C)C[C@@H](OC)[C@H](C)CN(Cc1ccc(-c3ccccn3)cc1)[C@H](C)CO2 | inactive: 0.996 |
| CCS(=O)(=O)Nc1ccc2c(c1)C(=O)N(C)[C@@H]1CC[C@@H](CC(=O)NCc3ccc(OC)cc3)O[C@H]1CO2 | inactive: 0.994 |

| Structure (SMILES) | relative growth |
| --- | --- |
| CCOc1ccc(C(=O)Nc2ccc(N3CCN(C(=O)c4cccs4)CC3)c(Cl)c2)cc1Br | inactive: 1 |
| COc1ccc(NC(=O)N(C)C[C@H]2OCc3ccccc3-c3c(n(C)c4ccccc34)C(=O)N([C@@H](C)CO)C[C@H]2C)cc1 | inactive: 1.01 |
| N=C(N)NCc1cn(CC(=O)N2CCN(c3ccccc3)CC2)nn1 | inactive: 0.995 |
| COc1ccc(S(=O)(=O)N(C)C[C@@H]2Oc3c(cccc3N(C)C)C(=O)N([C@H](C)CO)C[C@@H]2C)cc1 | inactive: 0.987 |
| C[C@@H]1CN([C@@H](C)CO)S(=O)(=O)c2ccc(C#Cc3ccccn3)cc2O[C@H]1CN(C)Cc1ccccc1 | inactive: 1.03 |
| C[C@@H]1CCCCO[C@H](CN(C)CC2CCCCC2)[C@H](C)CN([C@@H](C)CO)C(=O)c2cc(NC(=O)c3ccncc3)ccc2O1 | inactive: 1 |
| O=C(C[C@@H]1C[C@H]2c3cc(NS(=O)(=O)c4ccc(F)cc4)ccc3O[C@H]2[C@H](CO)O1)NCc1ccccn1 | inactive: 1.03 |
| CO[C@H](CN(C)S(=O)(=O)c1ccc(Cl)cc1)[C@H](C)CN([C@H](C)CO)S(=O)(=O)c1cccc(Cl)c1 | inactive: 0.989 |
| Cc1noc(C)c1NC(=O)Nc1ccc2c(c1)C(=O)N([C@@H](C)CO)C[C@H](C)[C@H](CN(C)Cc1ccc(C(F)(F)F)cc1)O2 | inactive: 1.01 |
| C[C@@H]1CN([C@@H](C)CO)C(=O)c2c(c3ccccc3n2C)-c2ccccc2CO[C@H]1CN(C)Cc1ccc(O)cc1 | inactive: 0.992 |
| CN(C)CCCNC(=O)C[C@H]1C=C[C@@H](NS(=O)(=O)c2ccccc2)[C@@H](CO)O1 | inactive: 0.996 |
| Cc1cc(S(=O)(=O)NCC(=O)O)ccc1F | inactive: 1.01 |
| NC1=N[C@H]2CS[C@@H](CCCCC(=O)O)[C@H]2N1 | inactive: 1.01 |
| C[C@@H]1CN([C@@H](C)CO)C(=O)c2cccc(NC(=O)C3CCCCC3)c2O[C@H]1CN(C)S(=O)(=O)c1cn(C)cn1 | inactive: 1.01 |
| Cc1ccc(S(=O)(=O)Nc2ccc3c(c2)C(=O)N([C@H](C)CO)C[C@H](C)[C@@H](CN(C)S(=O)(=O)c2cccs2)O3)cc1 | inactive: 1.03 |
| COc1cccc(S(=O)(=O)N2C[C@H](O)COC[C@H]3O[C@@H](CC(=O)N4CCN(c5ccccc5)CC4)CC[C@@H]32)c1 | inactive: 1.01 |
| C[C@@H]1CN([C@@H](C)CO)C(=O)c2cccc(NC(=O)c3cnccn3)c2O[C@@H]1CN(C)S(=O)(=O)c1ccc(Cl)cc1 | inactive: 0.991 |
| CC(C)NC(=O)N(C)C[C@@H]1Oc2ccc(NC(=O)CCCN(C)C)cc2CC(=O)N([C@H](C)CO)C[C@@H]1C | inactive: 0.991 |
| Cc1ccc(S(=O)(=O)Nc2ccc3c(c2)C(=O)N([C@H](C)CO)C[C@@H](C)[C@H](CN(C)C(=O)Nc2cccc4ccccc24)OCCCC[C@@H](C)O3)cc1 | inactive: 1.01 |
